Data: PubChem BioAssay AID326 (DTP/NCI, 2004)
Inconclusive results and toxic doses are left out. Not every entry of the source has a single result; some have several. The other results are left out here. An entry can have further records. The values listed for one entry do not match, cause unknown; some may be repeats, others may stem from another dose, organism or construct than stated.

System: CD2F1 mice, P388/DHAQ leukemia ip, median survival T/C
Assay: NCI In Vivo Anticancer Drug Screen. Data for tumor model P388 Leukemia resistant to Dihydroxy Anthracenedione; NSC 299195 (intraperitoneal) in CD2F1 (CDF1) mice
Details: endpoint: median survival time, schedule: Q04DX003 (ip), vehicle: saline with Tween-80, higher = longer survival
Method: The antitumor activity of compounds was measured in mice bearing transplantable tumors. Survival or tumor size were measured and the results are expressed as the measurement made in the treated group (T) divided by the measurement made in the vehicle treated control group (C). The tumor model used in this assay is P388 Leukemia resistant to Dihydroxy Anthracenedione; NSC 299195 (intraperitoneal) in CD2F1 (CDF1) mice

**Q.** Which results are given for `Cc1c2ccncc2c(C)c2c1[nH]c1ccccc12`?
**A.** T/C (dose: 21.6 mg/kg/injection): 102 % of control, 118 % of control, 169 % of control; T/C (dose: 36.0 mg/kg/injection): 112 % of control and 184 % of control; T/C (dose: 100.0 mg/kg/injection): 112 % of control and 161 % of control
